Experimental data from paper PMC10772735, “Characterization of erythroferrone oligomerization and its impact on BMP antagonism” (The Journal of Biological Chemistry, 2023).
Positions count from the first letter of the chain named. Numbers in names are those of the source. These are yes or no findings as the source states them, for the method shown. Some results given as binding are weak or reduced against the parent protein; the word gives no strength. For some of these results: Sequences can lack the tags named with a protein.

Chains of the proteins cited; added tags and fusions are not shown. Residues count along the entry.
UniProt P36894, residues 24-152: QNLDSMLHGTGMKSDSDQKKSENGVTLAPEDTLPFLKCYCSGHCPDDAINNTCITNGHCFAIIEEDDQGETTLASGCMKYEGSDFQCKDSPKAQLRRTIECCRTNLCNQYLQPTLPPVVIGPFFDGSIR

T1: BMP6 (UniProt P22004 375-513)
T1 sequence (looked up): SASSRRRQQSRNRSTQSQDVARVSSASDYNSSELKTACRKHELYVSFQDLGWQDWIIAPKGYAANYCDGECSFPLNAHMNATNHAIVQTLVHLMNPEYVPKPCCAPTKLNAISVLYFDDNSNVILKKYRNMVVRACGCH

B1: N-terminally flag-tagged hERFE (residues 44–354), WT erythroferrone (natural protein, human, UniProt Q4G0M1 44-354, looked up)
chain: PPPGNELPRGPGESRAGPAARPPEPTAERAHSVDPRDAWMLFVRQSDKGVNGKKRSRGKAKKLKFGLPGPPGPPGPQGPPGPIIPPEALLKEFQLLLKGAVRQRERAEPEPCTCGPAGPVAASLAPVSATAGEDDDDVVGDVLALLAAPLAPGPRAPRVEAAFLCRLRRDALVERRALHELGVYYLPDAEGAFRRGPGLNLTSGQYRAPVAGFYALAATLHVALGEPPRRGPPRPRDHLRLLICIQSRCQRNASLEAIMGLESSSELFTISVNGVLYLQMGQWTSVFLDNASGCSLTVRSGSHFSAVLLGV
notes: erythroferrone (ERFE, FAM132B), human, residues 44-354; By AUC a mixture of trimer, hexamer and a little high molecular weight species; also called WT ERFE; N-Flag ERFE; not shown: FLAG, N-terminal, kept
B2: D90A ERFE (natural protein, human, UniProt Q4G0M1 44-354, looked up)
chain: B1 chain with D47A
B3: N94A ERFE (natural protein, human, UniProt Q4G0M1 44-354, looked up)
chain: B1 chain with N51A
B4: W82A ERFE (protein, UniProt Q4G0M1 44-354)
chain: B1 chain with W39A
B5: F85A ERFE (protein, UniProt Q4G0M1 44-354)
chain: B1 chain with F42A
B6: Cys∗ΔC1Q ERFE (domain or fragment, human, UniProt Q4G0M1 44-207, looked up)
chain: PPPGNELPRGPGESRAGPAARPPEPTAERAHSVDPRDAWMLFVRQSDKGVNGKKRSRGKAKKLKFGLPGPPGPPGPQGPPGPIIPPEALLKEFQLLLKGAVRQRERAEPEPSTSGPAGPVAASLAPVSATAGEDDDDVVGDVLALLAAPLAPGPRAPRVEAAFL
notes: erythroferrone (ERFE), human, stop codon at C208, Cys155 and Cys157 mutated to serines (C208 is not in the truncated chain); source: Expi293, transfected, purified; not shown: FLAG, N-terminal, kept

Columns and labels:
[1] = target: Recombinant ALK3-Fc fusion protein (UniProt P36894); assay: SPR; BIAcore T-200; 0.45 μg/ml Alk3-Fc captured on a protein A chip (85 response units); 10 nM constant BMP6 with ERFE 160 to 5 nM flowed over at 50 μl/min, 300 s association, 900 s dissociation; controls BMP6 alone and ERFE alone at 160 nM; 20 mM Hepes pH 7.4, 350 mM NaCl, 0.005% Tween-20, 0.5 mg/ml BSA, 5 mM EDTA; both purified
[2] = target: T1, BMP6; assay: as above
[3] = target: Cys∗ΔC1Q ERFE (human) (UniProt Q4G0M1); assay: condition: only in SDS (non-reducing SDS-PAGE, shows only disulfide-linked species); non-reducing SDS-PAGE; purified ERFE analysed by SDS-PAGE under reducing and nonreducing conditions; shows only disulfide-linked species; both purified

Row | Binder | binding [1] | binding [2] | binding [3]
1 | B1 | no binding (tested: 160 nM) | binds | 
2 | B2 |  | binds | 
3 | B3 |  | binds | 
4 | B4 |  | binds weakly | 
5 | B5 |  | binds weakly | 
6 | B6 |  |  | no binding
